According to PubChem BioAssay AID504832 (National Center for Advancing Translational Sciences (NCATS), 2011):
The campaign covered roughly 310,000 compounds. About 18,000 (5.8%) were called active. The inconclusive results got no clear call from the source; some entries with a clear call stand among them for comparison. Calls come from the whole dose curve; as a rule, active = well fitted inhibition curve with a large enough effect; inconclusive = small, poorly fitted or top-dose-only effect, or another doubt; inactive = no such curve, though single readings can be large or run the other way. No potency is given beside an inconclusive call; the fits are too rough.

assay: Primary qHTS for delayed death inhibitors of the malarial parasite plastid, 48 hour incubation; conditions: P. falciparum luciferase growth in erythrocytes; series mostly up to 28.7 µM
Outline: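 Firefly luciferase activity from engineered P. falciparum reports growth; inhibitors lower the luminescent signal. Cultures contained 2% hematocrit erythrocytes at 0.1% final parasitemia.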
Potency is the fitted concentration of half-maximal effect; tags give direction and shape of the fitted curve.

| SMILES | Potency |
| --- | --- |
| CCCCn1cnc2c(c1=O)c1nc3ccccc3nc1n2Cc1ccc2c(c1)OCO2 | inconclusive [inhibitor, full curve] |
| CCCCCSc1nc2c(cnn2-c2ccccc2)c(=O)[nH]1 | inactive |
| COc1ccc(CN2CCN(Cc3ccccc3F)CC2)cc1OC | inactive |
| CCn1c(SCC(=O)Nc2cccc(C)c2)nc2nc3c(cc2c1=O)COC(C)(C)C3 | inconclusive [inhibitor, partial curve, poor fit] |
| CC(C)CCNC(=O)CN1C(=O)NC(c2ccccc2)(c2ccccc2)C1=O | inactive |
| Cc1ccc(F)c(Oc2cc(NN3CCCCC3)c([N+](=O)[O-])cc2[N+](=O)[O-])c1 | inconclusive [inhibitor, full curve, poor fit] |
| NS(=O)(=O)c1ccc(N/N=C/c2ccc[nH]2)c([N+](=O)[O-])c1 | inconclusive [inhibitor, partial curve, poor fit] |
| COCC(CN1CCN(C2=NS(=O)(=O)c3ccccc32)CC1)OC(=O)c1ccccc1 (configuration not stated) | inactive |
| CCc1cccc(N(C(=O)c2csnn2)C(C(=O)NC2CCCCC2)c2cccnc2)c1 (configuration not stated) | inactive |
| COc1ccc(-n2c(C)cc(C(=O)Cn3nc(C(=O)O)c4ccccc4c3=O)c2C)cc1 | inconclusive [inhibitor, single point] |
| Cc1nc2ncnn2c(N2CCC(C(=O)NC3CCCC3)CC2)c1Cc1ccccc1 | active: 14.7 µM |
| O=c1[nH]c(=O)n(Cc2ccc(F)cc2)c(O)c1C=NCCCN1CCOCC1 | inconclusive [inhibitor, partial curve] |
| COc1ccc(OC)c(COC(=O)c2cc([N+](=O)[O-])ccc2N2CCOCC2)c1 | active: 4.65 µM |
| CCCN(CCC)CCCNC(=O)c1cn(C)c2ccc(S(=O)(=O)N(C)C3CCCCC3)cc2c1=O | inconclusive [inhibitor, partial curve] |
| COc1ccccc1N1CCN(C2CC(=O)N(c3ccc(F)cc3)C2=O)CC1 (configuration not stated) | inactive |
| Cc1cccc2sc(NC(=O)c3ccc(OCC4CCCO4)cc3)nc12 (configuration not stated) | inconclusive [inhibitor, single point] |
| COc1cccc(OC)c1C(=O)Nc1ccccc1C(=O)N1CCCC1 | inactive |
| OCc1ncccc1O | inactive |
| O=C(NCCC1CCCCN1S(=O)(=O)c1ccccc1)C(=O)NCc1ccco1 (configuration not stated) | inconclusive [inhibitor, full curve, poor fit] |
| COc1ccc([C@@H]2CNC(=O)C2)cc1OC1CCCC1 | inactive |
| C=CCNC(=O)c1n[nH]c2c1CC(C(C)(C)CC)CC2 (configuration not stated) | inconclusive [inhibitor, partial curve, poor fit] |
| CC(=O)N1N=C(c2ccco2)CC1c1ccc(Br)cc1 (configuration not stated) | inactive |
| CCOC(=O)c1cnc(SC2CC(=O)N(c3ccc(C)cc3)C2=O)nc1N (configuration not stated) | inactive |
| CCC1(c2ccccc2)NC(=O)N(CC(=O)N(CC(=O)Nc2ccccc2C(F)(F)F)Cc2ccco2)C1=O (configuration not stated) | inconclusive [inhibitor, single point] |

| SMILES | Potency |
| --- | --- |
| C/C=C\C=C/C(=O)Nc1cccc(C2=NOC3(C2)C[C@H](C(N)=O)N(C(=O)Cc2ccc([N+](=O)[O-])cc2)C3)c1 (some centres not stated) | inconclusive [inhibitor, single point] |
| COc1ccc(OC)c(NC(=O)C(CC(C)C)NC(=O)C2CCCCC2)c1 (configuration not stated) | inconclusive [inhibitor, single point] |
| COc1ccc(-n2nnnc2SCC(=O)c2cc3ccccc3o2)cc1 | inactive |
| COc1cc(/C=N/Nc2nnc3c(n2)[nH]c2ccccc23)ccc1O | inconclusive [inhibitor, single point] |
| O=C(Nc1cccc(-c2cn3ccccc3n2)c1)c1cc2ccccc2oc1=O | inactive |
| CCN(CC)S(=O)(=O)c1cccc(NC(=O)CCNC(=O)c2ccc([N+](=O)[O-])cc2)c1 | inconclusive [inhibitor, single point] |
| CCCC1CCc2c(sc(NC(=O)OCC)c2C#N)C1 (configuration not stated) | inactive |
| C#Cc1ccc(C(=O)Nc2ccc(N3CCC(C)CC3)c(C(N)=O)c2)cc1 | active: 1.85 µM |
| COc1ccc(NC(=O)C2CCN(S(=O)(=O)c3ccc4c(c3)NC(=O)CO4)CC2)cc1 | inconclusive [inhibitor, partial curve, poor fit] |
| O=C(Nc1ccc(OC(F)F)c(Cl)c1)C(c1ccccc1)c1ccccc1 | inconclusive [inhibitor, single point] |
| CSc1ccccc1OCc1cc(C(=O)N(C)CCc2c(C)n[nH]c2C)no1 | inconclusive [inhibitor, single point] |
| COc1ccccc1-c1cn[nH]c1-c1ccc(OCc2ccc(F)cc2)cc1O | active: 13.1 µM |
| CCN(CCCNC(=O)c1[nH]c(C)c(C(C)=O)c1C)c1ccccc1 | inconclusive [inhibitor, single point] |
| Cc1cc(C)nc(N2CCC(C(=O)NNC(=O)c3ccccc3)CC2)n1 | inactive |
| Cc1cc(NN)nc(NS(=O)(=O)c2ccccc2)n1 | inconclusive [inhibitor, single point] |
| O=S(=O)(c1ccccc1OC(F)(F)F)N1CCN(c2ccnc3cc(Cl)ccc23)CC1 | active: 9.28 µM |
| CCOC(=O)c1cccc(NC(=O)CSc2nc3ccccc3c(=O)n2CC)c1 | inconclusive [inhibitor, full curve, poor fit] |
| O=C(/C=C/c1ccc(O)cc1)c1ccc(NC2=C(N3CCCCC3)C(=O)c3ccccc3C2=O)cc1 | active: 0.522 µM |
| Cc1ccc2[nH]c3c(c2c1)CN(C(=O)CN1CC(C)OC(C)C1)CC3 (configuration not stated) | inconclusive [inhibitor, single point] |
| COCCNC(=S)N1CCc2cc(OC)c(OC)cc2C1c1cccs1 (configuration not stated) | active: 2.94 µM |
| CCCCC(CC)CNC(=O)CN(C)S(=O)(=O)c1cccc2nsnc12 (configuration not stated) | inconclusive [inhibitor, partial curve, poor fit] |
| COc1ccc(S(=O)(=O)N2CCC(c3cc(-c4cccc5ccccc45)n[nH]3)CC2)cc1 | inconclusive [inhibitor, partial curve] |
| CCCOc1ccc(S(=O)(=O)n2cc(F)c(=O)[nH]c2=O)cc1 | inactive |
| COc1cc(OC)c2c(C)cc(=O)oc2c1C(CCN1CCOCC1)c1ccc(N(C)C)cc1 (configuration not stated) | active: 10.4 µM |

| SMILES | Potency |
| --- | --- |
| CCOC(=O)c1[nH]c2ccc(Br)cc2c1NC(=O)CCN1CCCCC1 | inconclusive [inhibitor, single point] |
| O=C(O)c1cc([N+](=O)[O-])c(NCc2cccnc2)c([N+](=O)[O-])c1 | inactive |
| CCN(CC)S(=O)(=O)c1ccc(C(=O)NCc2nnc(SCC(=O)OC)n2C)cc1 | inconclusive [inhibitor, full curve, poor fit] |
| O=C(CCl)Nc1ccc(N2CCCCCC2)cc1 | inconclusive [inhibitor, full curve] |
| Cc1c(Cl)cccc1NC(=S)NCc1ccc2c(c1)OCO2 | inactive |
| COc1cc(OC)cc(C(=O)N[C@H](C(=O)Nc2nc(-c3ccc(OC)c(OC)c3)cs2)C(C)C)c1 | active: 13.1 µM |
| CCCCCc1nc2c(=O)[nH]c3ccccc3c2o1 | inconclusive [inhibitor, partial curve] |
| COc1ccc(C2/C=C\CN(C(=O)Oc3ccccc3)CC(=O)N2Cc2ccc(F)cc2)cc1 (configuration not stated) | inconclusive [inhibitor, single point] |
| O=C(C[n+]1ccc(-c2ccccc2)cc1)Nc1ccc([N+](=O)[O-])cc1 | inconclusive [inhibitor, single point] |
| CC(C)n1c(N2CCN(C(=O)Nc3ccccc3)CC2)nc2ccccc21 | inconclusive [inhibitor, full curve, poor fit] |
| COc1ccc(-n2c(COc3cccc4ccccc34)nnc2SCC(=O)NCc2ccco2)cc1 | active: 2.94 µM |
| COC(=O)Nc1nnc(/C=C/c2ccc(OC)cc2)s1 | inactive |
| COc1cccc(NC(=O)C(=O)NCc2ccncc2)c1 | inactive |
| O=C(O)C/C(=C\c1cc2c(cc1Br)OCO2)c1nc2ccccc2s1 | inactive |
| COc1ccc(-c2cc(C(=O)NN)[nH]n2)cc1OC | inactive |
| COc1cc(CNc2ccc(O)cc2)cc(Br)c1OCc1ccccc1 | inconclusive [inhibitor, single point] |
| CC(=NC1CCCC1)c1c(C)[nH]n(-c2nc3ccccc3s2)c1=O | inactive |
| Nc1c(C(=O)N/N=C/c2cccnc2)cnn1-c1ccccc1 | inactive |
| CCN1CCc2c(C#N)c(N3CCCCC3)nc(NCc3ccccc3)c2C1 | inconclusive [inhibitor, partial curve, poor fit] |
| c1ccc(CC2CCN(C3=Nc4cccc5cccc3c45)CC2)cc1 | inconclusive [inhibitor, single point] |
| Cc1ccc(N2CCN(C(=O)c3cc(C(=O)c4ccccc4C)c[nH]3)CC2)c(C)c1 | inconclusive [inhibitor, single point] |
| Cc1cc(C)cc(OCC(=O)O/N=C(\N)c2ccccc2Cl)c1 | inactive |
| CCC1CCCCN1CCCNC(=O)c1ccc2c(c1)c(C)c(C)n2CC (configuration not stated) | inconclusive [inhibitor, single point] |
| Cc1cc(NC(=O)c2ccc(F)c(S(=O)(=O)N3CCCCC3)c2)no1 | inconclusive [inhibitor, partial curve, poor fit] |
